Source: PubChem BioAssay AID1508624 (National Center for Advancing Translational Sciences (NCATS), 2021)
About 120 (0.25%) of roughly 48,000 compounds were called active. Not shown: some 4% with an inconclusive outcome. Calls come from the whole dose curve; as a rule, active = well fitted activation curve with a large enough effect; inconclusive = small, poorly fitted or top-dose-only effect, or another doubt; inactive = no such curve, though single readings can be large or run the other way. This is one part of the list.

Experiment: Primary qHTS for Identification of Small Molecule Activators of Huntingtin-Antisense Promoter Activity; note: nearly all actives have a fitted effect of over 55% in size
Conditions: HEK293 HTT-AS promoter firefly luciferase reporter, 24 h; series mostly up to 57.5 µM; activity change, positive = activation: at the top concentration
Procedure, shortened: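 HEK293 Fluc reporter, 2,500 cells/well, 24 h pre-culture; cpds up to 57.5 uM final, 24 h 37 degrees C; Dual-Glo, 10 min RT; normalized vehicle = 0%, zero RLU = -100%.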

Activity change, positive = activation, inactive:
COc1ccc(Cn2c(=O)n(-c3ccc(OC)cc3)c(=O)c3c2c2cc(OC)ccc2n3C)cc1 0.045%
COc1ccc(-c2cc(C)no2)cc1S(=O)(=O)NCc1ccco1 -24.1%
CCN(CC)S(=O)(=O)c1ccc2c(c1)c(=O)c(C(=O)NCc1ccccc1Cl)cn2C -49.9%
CCOC(=O)c1c(-c2ccc(C)cc2)csc1NC(=O)c1cc(=O)c2cc(C)cc(C)c2o1 2.26%
COc1cc(NC(=O)c2c3c(nc4ccccc24)C(=O)N(C2CCCCC2)C3)cc(OC)c1 -3.63%
COc1ccc(-n2c(SCc3ccccc3F)nc3c([nH]c4ccccc43)c2=O)cc1OC -36.7%
O=C(CSc1c2c(nc3cc(Cl)ccc13)CCCC2)N1CCN(c2ccccc2)CC1 -52.5%
CC1(C)O[C@@H]2[C@@H](CO[C@@]3(COS(N)(=O)=O)OC(C)(C)O[C@@H]23)O1 -8.03%
COc1ccc(OC)c(CCNC(=O)CCn2c(=O)c3cccn3c3ccc(F)cc32)c1 -3.29%
Cc1cccc(S(=O)(=O)c2cn(C)c3cc(N4CCN(c5ccc(F)cc5)CC4)c(F)cc3c2=O)c1 -17.7%
CC(C)c1ccc(NC(=O)CSC2=Nc3ccccc3C3=NC(CCC(=O)NCc4ccco4)C(=O)N23)cc1 (stereo not drawn) 25.1%
COc1cc(NS(=O)(=O)c2ccc(N)cc2)nc(OC)n1
CC[N+](CC)(CC(=O)Nc1c(C)cccc1C)Cc1ccccc1 -6.78%
Cc1ccc(CNC(=O)CCS(=O)(=O)c2cc3c(cc2C)NC(=O)CO3)cc1 -6.73%
O=C(CSc1nc2c(oc3ccccc32)c(=O)n1Cc1ccco1)Nc1ccccc1 -2.26%
Cc1ccc(CN2CCCN(Cc3c(C)cc(C)cc3C)S2(=O)=O)cc1 -9.29%
CCCSC1=NC2(CCN(C(=O)NC3CCCCC3)CC2)N=C1c1ccc(Cl)cc1 -20.4% [at 11.5 µM, percent change from vehicle, -100% = no light]
Cc1cccc(CSc2nc(-c3cccc(C)c3)nc3c2Cc2c(CO)cnc(C)c2O3)c1 -10.1%
COc1ccc(C)cc1NC(=O)COCc1cc(-c2ccc(F)cc2)on1 10.7%
CC(C)(C)C(=O)OCc1cc(=O)n2nc(C3CC3)sc2n1 19.8%
Cc1nn(Cc2noc(C(=O)NC(C)c3ccccc3)n2)c(C)c1Br (stereo not drawn) -15.6%
Cc1ccc(N2CCN(S(=O)(=O)c3c(C)[nH]c(=O)[nH]c3=O)CC2C)cc1 (stereo not drawn) -11.9%
CCCN(CCC)c1nn2c(=O)c(C(=O)NCc3cc(Br)ccc3OC)cnc2s1 -12.8%
CCOC(=O)c1cc(-c2ccccc2)n(CC(=O)Nc2ccc(CC)cc2)c1C -18%
COc1cc(Cl)c(C)cc1NC(=O)Cn1cc(S(=O)(=O)N2CCC(C)CC2)c2ccccc2c1=O -24.2%
CCCCN1CCC(CNC(=O)c2c3n(c4ccccc24)CCCO3)CC1 -23.5%
Cc1ccc(Cn2c(=O)n(Cc3ccco3)c(=O)c3oc4ccccc4c32)cc1 -8.61%
C[C@]12CC[C@H]3[C@@H](CCC4=CC(=O)CC[C@@]43C)[C@@H]1CC[C@@H]2C(=O)CO -22.1%
CCOc1ccc(OCC)c(NC(=O)c2cnc(SC)nc2-c2ccccc2)c1 -27.1%
Cc1ccc(C)c(NC(=O)CSc2nc3c([nH]c4ccccc43)c(=O)n2-c2ccc(F)cc2)c1 -23.9%
COc1ccc(CC(=O)NCC(c2ccc(Cl)cc2)N2CCOCC2)cc1 (stereo not drawn) -9.35%
Cc1ccc(C)c(Cn2c(=O)n(-c3ccc(Cl)cc3)c(=O)c3c(C)c(C)sc32)c1 20.4%
Cc1ccc(S(=O)(=O)c2nnn3c2nc(NC2CCCCC2)c2sccc23)cc1 -32.8%
CN(C)S(=O)(=O)c1ccc2c(c1)nnn2CCNC(=O)Nc1ccc(Cl)cc1 -10.7%
Cc1ccc(Cc2cn3cc(-c4ccccc4)nc3s2)cc1 -31.4%
CC(C)n1cnc2c(NCCCCCCNC(=O)OC(C)(C)C)nc(NCCO)nc21 -31%
CCCCNC(=O)c1ccccc1NC(=O)CN(c1ccccc1)S(=O)(=O)N(C)C -12.9%
O=C(CSc1nc(=O)n(Cc2ccco2)c2c1CCC2)Nc1ccccc1C(F)(F)F -35.9%
Cc1ccc(Cl)cc1N1CCN(C(=O)c2cc(S(=O)(=O)N3CCCC3)c[nH]2)CC1 -28.7%
CCOC(=O)CNC(c1ccccc1)c1cc(Br)ccc1NC(=O)c1cccc(Cl)c1 (stereo not drawn) -13.2%
CCc1ccc(NC(=O)C2CCCN(S(=O)(=O)c3ccc(F)cc3)C2)cc1 (stereo not drawn) -13.5%
CCc1nnc(SCC(=O)N(CC)c2ccccc2)c2cc3oc(C)cc3n12 -11%
CC(=O)N1CCCc2cc(S(=O)(=O)N3CCC(C(=O)NCc4ccccc4)CC3)ccc21 -14.1%
CCN(Cc1ccccc1)C(=O)Cn1c(=O)n(-c2ccc(Cl)cc2)c(=O)c2c(C)c(C)sc21 -17.5%
CCCNC(=O)Cn1c(=O)c2cccn2c2cccnc21 -18.4%
CCCNC(=O)C1Cc2cc(S(=O)(=O)N3CCCCCC3)ccc2N1C(C)=O (stereo not drawn) 5.58%
CCn1c(C(=O)NCc2ccccc2Br)cc2oc3ccccc3c21 -36.1%
CCCn1cnc2cc(NCc3ccccc3OCC)ccc21 -5.96%
COC(=O)c1ccc(C(=O)OC)c(NC(=O)c2cc3nc(-c4ccc(C)cc4)cc(C(F)(F)F)n3n2)c1 -4.22% [at 11.5 µM, percent change from vehicle, -100% = no light]
COc1ccc(C2=NS(=O)(=O)N(C)C(C(=O)N(C)Cc3ccccc3)=C2)cc1OC -22.1%
Cc1ccccc1OCc1nc2ccccc2n1Cc1ccccc1Cl -5.33%
CC(=O)c1ccc(NC(=O)CSc2cn(CC(=O)N(C(C)C)C(C)C)c3ccccc23)cc1 -22.6%
CCCCN(CC)C(=O)CCNS(=O)(=O)c1ccc2c(c1)c(=O)n(C)c(=O)n2C -7.07%
CCS(=O)(=O)N1CCc2cc(C(=O)Nc3cccc(C(C)=O)c3)ccc21 0.19%
Cc1cccc(Nc2ccncc2S(=O)(=O)NC(=O)NC(C)C)c1
CC(C)CCn1c(Oc2ccccc2F)nc2c1c(=O)n(C)c(=O)n2C -21.3%
CCCOc1cccc(C2c3c(-c4ccccc4O)n[nH]c3C(=O)N2Cc2ccco2)c1 (stereo not drawn) -32.4%
COc1ccc(C(CNC(=O)c2oc3cc(C)c(Cl)cc3c2C)N2CCCCC2)cc1 (stereo not drawn) 18.2%
